Test results taken from the supplement of paper PMC6531468.
The list shows a part of the results. Read counts after selection give these values, which scatter widely. Scores sum up all selected molecules that hold the word; the word was not tested alone.

What follows are sequences tested against IMP3 full-length (UniProt O00425) (assay: 6-mer SELEX enrichment z-score vs GST control; IMP3 is the RNA-binding protein IGF2BP3; higher = more enriched by binding). Conditions: construct: FL IMP3 (1-579); SELEX round: R4.
Experimental: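 SELEX-seq with GST-tagged full-length IMP3 and an N40 RNA pool, round 4. Each 6-mer is scored as an enrichment z-score of sequence tags containing it, normalised to the matching GST SELEX round. RNA written as DNA (T = U).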

Chain of UniProt O00425 (O00425 whole entry): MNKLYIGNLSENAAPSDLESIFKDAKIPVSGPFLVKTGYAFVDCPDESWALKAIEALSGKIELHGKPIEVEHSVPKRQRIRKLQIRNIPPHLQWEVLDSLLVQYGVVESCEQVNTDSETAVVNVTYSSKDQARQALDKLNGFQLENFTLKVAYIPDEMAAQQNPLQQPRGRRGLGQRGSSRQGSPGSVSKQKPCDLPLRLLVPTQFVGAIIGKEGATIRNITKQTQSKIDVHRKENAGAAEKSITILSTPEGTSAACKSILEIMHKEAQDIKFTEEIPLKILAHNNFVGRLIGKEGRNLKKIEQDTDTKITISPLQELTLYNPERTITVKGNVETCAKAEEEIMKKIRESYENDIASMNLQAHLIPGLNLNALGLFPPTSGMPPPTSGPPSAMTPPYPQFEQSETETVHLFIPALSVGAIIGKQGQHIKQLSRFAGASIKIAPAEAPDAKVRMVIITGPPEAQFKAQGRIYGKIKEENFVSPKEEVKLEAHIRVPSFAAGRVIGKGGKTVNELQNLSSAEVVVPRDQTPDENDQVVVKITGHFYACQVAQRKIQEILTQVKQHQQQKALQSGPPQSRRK

Sequence	6-mer SELEX enrichment z-score
ATTGTA	-0.022
TCGCCA	0.574
CTTCTA	0.028
AGAGTT	-0.008
TCAGTT	0.663
TGGCGG	0.77
AACTAG	-0.597
CCCCTG	-0.825
CCCCGA	-1.49
CGGGAG	0.421
GTTCGA	-0.385
CGGTCT	0.172
CTTTCC	-0.162
CCTCGG	0.271
CTAACG	-0.952
CGGCTG	0.939
CTACCC	-1.07
AGCGAC	-0.3
TAAACT	-0.799
CGACCG	-0.825

Sequence	6-mer SELEX enrichment z-score
ACAACC	-0.656
TCTTGT	0.024
CCCATC	0.147
CTATAC	-0.084
TAATTG	-0.158
TAATGC	-0.186
GAAGAA	-0.963
TTGATT	-0.035
TCGATG	-0.281
CCCGCT	-0.293
ATGTAG	-0.151
CCTCCA	-0.373
TTGATG	-0.192
TGGGTC	0.309
CGTGTC	-0.016
CTGAGT	-0.31
TTTTTA	0.212
ATGGAA	-0.235
ATCCGT	0.058
GAACGC	-0.809
